Measured values as given in patent US20130184251A1, “HETEROAROMATIC AND AROMATIC PIPERAZINYL AZETIDINYL AMIDES AS MONOACYLGLYCEROL LIPASE INHIBITORS” (Janssen Pharmaceutica, NV, priority 2009, published 2013).

Columns and labels:
[1] = molecular target: T1, purified mutant MGL (mut-MGLL 11-313 L179S L186S) (Homo sapiens, UniProt Q99685, L169S/L176S); assay: biochemical; conditions: Ex. 4 Kd, ThermoFluor
T1 sequence (Q99685 1-303 L169S/L176S): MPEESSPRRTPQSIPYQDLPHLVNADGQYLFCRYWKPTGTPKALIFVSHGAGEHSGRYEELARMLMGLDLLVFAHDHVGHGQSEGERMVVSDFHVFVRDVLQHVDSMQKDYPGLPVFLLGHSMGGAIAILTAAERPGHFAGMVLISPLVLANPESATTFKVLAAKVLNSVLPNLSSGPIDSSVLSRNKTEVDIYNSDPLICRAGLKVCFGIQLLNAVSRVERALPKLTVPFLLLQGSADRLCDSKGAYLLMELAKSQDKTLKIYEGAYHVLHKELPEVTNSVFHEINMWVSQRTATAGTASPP

[2] = molecular target: T1, purified mutant MGL (mut-MGLL 11-313 L179S L186S); assay: biochemical; conditions: Ex. 3 (mutant) IC50, mutant MGL (mut-MGLL 11-313 L179S L186S)

Row | Compound | Kd [1] | IC50 [2] [nM]
1 | O=C(c1ccccc1OCc1ccccc1)N1CC(N2CCN(c3ccccn3)CC2)C1 [compound 58, 1-(1-{[2-(Benzyloxy)phenyl]carbonyl}azetidin-3-yl)-4-pyridin-2-ylpiperazine] | 1080 nM | 346
2 | CCCn1ccc2cc(C(=O)N3CC(N4CCN(c5ccccn5)CC4)C3)ccc21 [compound 31, 1-Propyl-5-{[3-(4-pyridin-2-ylpiperazin-1-yl)azetidin-1-yl]carbonyl}-1H-indole] | 42 nM | 48
3 | O=C(c1ccc(C2CCCCC2)cc1)N1CC(N2CCN(c3nccs3)CC2)C1 [compound 6, 1-{1-[(4-Cyclohexylphenyl)carbonyl]azetidin-3-yl}-4-(1,3-thiazol-2-yl)piperazine] | 14 nM | 8
4 | O=C(/C=C/c1cccc(C(F)(F)F)c1)N1CC(N2CCN(c3ccccn3)CC2)C1 [compound 95, 1-Pyridin-2-yl-4-(1-{(2E)-3-[3-(trifluoromethyl)phenyl]prop-2-enoyl}azetidin-3-yl)piperazine] | 4190 nM | 5450
5 | O=C(c1ccc(C2CCCCC2)cc1)N1CC(N2CCN(c3ccc(Cl)cn3)CC2)C1 [compound 56, 1-(5-Chloropyridin-2-yl)-4-{1-[(4-cyclohexylphenyl)carbonyl]azetidin-3-yl}piperazine] | 250 nM | 279
6 | O=C(c1ccc(C2CCCCC2)cc1)N1CC(N2CCN(c3ncccc3C(F)(F)F)CC2)C1 [compound 82, 1-{1-[(4-Cyclohexylphenyl)carbonyl]azetidin-3-yl}-4-[3-(trifluoromethyl)pyridin-2-yl]piperazine] | 4550 nM | 2230
7 | COc1ccc(-c2ccc(C(=O)N3CC(N4CCN(c5ncccn5)CC4)C3)cc2)cc1 [compound 5, 2-(4-{1-[(4′-Methoxybiphenyl-4-yl)carbonyl]azetidin-3-yl}piperazin-1-yl)pyrimidine] | 50 nM | 7
8 | O=C(c1ccc(Oc2ccccc2)cc1)N1CC(N2CCN(c3ccccn3)CC2)C1 [compound 45, 1-{1-[(4-Phenoxyphenyl)carbonyl]azetidin-3-yl}-4-pyridin-2-ylpiperazine] | 244 nM | 140
9 | O=C(c1ccc(Cc2ccccc2)cc1)N1CC(N2CCN(c3ncccn3)CC2)C1 [compound 24, 2-(4-{1-[(4-Benzylphenyl)carbonyl]azetidin-3-yl}piperazin-1-yl)pyrimidine] | 42 nM | 30
10 | CN(c1ccc(C(=O)N2CC(N3CCN(c4ccccn4)CC3)C2)cc1)C1CCCCC1 [Compound #1, N-Cyclohexyl-N-methyl-4-{[3-(4-pyridin-2-ylpiperazin-1-yl)azetidin-1-yl]carbonyl}aniline] | 10 nM | < 5
11 | N#Cc1cccnc1N1CCN(C2CN(C(=O)c3ccc(-c4ccccc4)cc3)C2)CC1 [compound 23, 2-(4-[1-(Biphenyl-4-ylcarbonyl)azetidin-3-yl]piperazin-1-yl}pyridine-3-carbonitrile] | 36 nM | 27
12 | Cc1c(C(=O)N2CC(N3CCN(c4ccccn4)CC3)C2)nn(-c2ccc(Cl)cc2Cl)c1-c1ccc(Cl)cc1 [compound 39, 1-(1-{[5-(4-Chlorophenyl)-1-(2,4-dichlorophenyl)-4-methyl-1H-pyrazol-3-yl]carbonyl}azetidin-3-yl)-4-pyridin-2-ylpiperazine] | 182 nM | 75
13 | O=C(c1ccc(-c2ccccc2)cc1)N1CC(N2CCN(c3ncccc3C(F)(F)F)CC2)C1 [compound 101, 1-[1-(Biphenyl-4-ylcarbonyl)azetidin-3-yl]-4-[3-(trifluoromethyl)pyridin-2-yl]piperazine] | 6670 nM | 6520
14 | N#Cc1ccc(N2CCN(C3CN(C(=O)c4ccc(C5CCCCC5)cc4)C3)CC2)nc1 [compound 93, 6-(4-{1-[(4-Cyclohexylphenyl)carbonyl]azetidin-3-yl}piperazin-1-yl)pyridine-3-carbonitrile] | 2860 nM | 5110
15 | O=C(C1CCc2ccccc2C1)N1CC(N2CCN(c3ccccn3)CC2)C1 (centres unmarked) [compound 125, 1-Pyridin-2-yl-4-[1-(1,2,3,4-tetrahydronaphth-2-ylcarbonyl)azetidin-3-yl]piperazine] | 7140 nM | 10800
16 | O=C(c1cc2cc(OCc3ccccc3)ccc2[nH]1)N1CC(N2CCN(c3ccccn3)CC2)C1 [compound 62, 5-(Benzyloxy)-2-{[3-(4-pyridin-2-ylpiperazin-1-yl)azetidin-1-yl]carbonyl}-1H-indole] | 4550 nM | 513
17 | O=C(c1ccc(Oc2cc(Cl)cc(Cl)c2)o1)N1CC(N2CCN(c3ccccn3)CC2)C1 [compound 129, 1-(1-{[5-(3,5-Dichlorophenoxy)furan-2-yl]carbonyl}azetidin-3-yl)-4-pyridin-2-ylpiperazine] | 9810 nM | –
18 | O=C(CCc1ccc(I)cc1)N1CC(N2CCN(c3ncccn3)CC2)C1 [compound 51, 2-(4-{1-[3-(4-Iodophenyl)propanoyl]azetidin-3-yl}piperazin-1-yl)pyrimidine] | 417 nM | 196
19 | O=C(c1ccc(C2CCCCC2)cc1)N1CC(N2CCN(c3ncccc3I)CC2)C1 [compound 98, 1-{1-[(4-Cyclohexylphenyl)carbonyl]azetidin-3-yl}-4-(3-iodopyridin-2-yl)piperazine] | 5560 nM | 6030
20 | O=C(c1ccc(C2CCCCC2)cc1)N1CC(N2CCN(c3ncncn3)CC2)C1 [compound 32, 2-(4-{1-[(4-Cyclohexylphenyl)carbonyl]azetidin-3-yl}piperazin-1-yl)-1,3,5-triazine] | 29 nM | 51
21 | O=C(/C=C/c1ccc(-c2ccccc2)cc1)N1CC(N2CCN(c3ccccn3)CC2)C1 [compound 73, 1-{1-[(2E)-3-Biphenyl-4-ylprop-2-enoyl]azetidin-3-yl}-4-pyridin-2-ylpiperazine] | 1780 nM | 1000
22 | O=C(c1ccc(-c2ccccc2)cc1)N1CC(N2CCN(c3nc4ccccc4s3)CC2)C1 [compound 106, 2-(4-[1-(Biphenyl-4-ylcarbonyl)azetidin-3-yl]piperazin-1-yl}-1,3-benzothiazole] | 12500 nM | 12500
23 | O=C(c1ccc(-c2ccc(I)cc2)cc1)N1CC(N2CCN(c3ncccn3)CC2)C1 [compound 19, 2-(4-{1-[(4′-Iodobiphenyl-4-yl)carbonyl]azetidin-3-yl}piperazin-1-yl)pyrimidine] | 18 nM | 22
24 | O=C(c1ccc(-n2cccc2)cc1)N1CC(N2CCN(c3ncccn3)CC2)C1 [compound 25, 2-[4-(1-{[4-(1H-Pyrrol-1-yl)phenyl]carbonyl}azetidin-3-yl)piperazin-1-yl]pyrimidine] | 59 nM | 32
25 | CCCCCC12CCC(C(=O)N3CC(N4CCN(c5ccccn5)CC4)C3)(CC1)CC2 [compound 128, 1-{1-[(4-Pentylbicyclo[2.2.2]oct-1-yl)carbonyl]azetidin-3-yl}-4-pyridin-2-ylpiperazine] | 20000 nM | –
26 | O=C(c1cc2ccc(C(F)(F)F)cc2s1)N1CC(N2CCN(c3ncccn3)CC2)C1 [Compound #139, (6-Trifluoromethyl-benzo[b]thien-2-yl)-[3-(4-pyrimidin-2-yl-piperazin-1-yl)-azetidin-1-yl]-methanone] | 25 nM | –
27 | O=C(c1ccc(-c2ccccc2)cc1)N1CC(N2CCN(c3ncccn3)CC2)C1 [Compound #12, Biphenyl-4-yl-[3-(4-pyrimidin-2-yl-piperazin-1-yl)-azetidin-1-yl]-methanone] | 14 nM and 25 nM | –

Values joined by “and” are separate entries in the source; they are usually repeats but may differ in a detail not shown here. Identical values can stand only once.
